# Laboratory results published in PubChem BioAssay AID1745853 (National Center for Advancing Translational Sciences (NCATS), 2022).
# “And” between values parts separate entries of the source, which are not always exact repeats. Equal values may be shown once. The list shows a part of the results. Further columns of the screen follow, without active or inactive calls.
# Key:
# Test in all cases: Primary Screen for Target Class Profiling of Small Molecule Inhibitors of Methyltransferases
# [1] = target: Glycine N-methyltransferase (Homo sapiens) (UniProt Q14749); conditions: purified enzyme, MTase-Glo SAH luminescence; measured here: GNMT inhibition; at 40 µM; stronger effect = lower value
# Outline: (§1)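 Each enzyme was assayed with SAM and its substrate. SAH formation detected by MTase-Glo luminescence; single-point 40 uM screen[…].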
# [2] = target: Guanidinoacetate N-methyltransferase (Homo sapiens) (UniProt Q14353); conditions: purified enzyme, MTase-Glo SAH luminescence; measured here: GAMT inhibition; at 40 µM; stronger effect = lower value
# Outline: as §1
# [3] = target: Histamine N-methyltransferase (Homo sapiens) (UniProt P50135); conditions: purified enzyme, MTase-Glo SAH luminescence; measured here: HNMT inhibition; at 40 µM; stronger effect = lower value
# Outline: as §1
# [4] = target: Nicotinamide N-methyltransferase (Homo sapiens) (UniProt P40261); conditions: purified enzyme, MTase-Glo SAH luminescence; measured here: NNMT inhibition; at 40 µM; stronger effect = lower value
# Outline: as §1
# [5] = target: Phenylethanolamine N-methyltransferase (Homo sapiens) (UniProt P11086); conditions: purified enzyme, MTase-Glo SAH luminescence; measured here: PNMT inhibition; at 40 µM; stronger effect = lower value
# Outline: as §1
# On the % scale 0 is the no-effect control and ±100 the full control effect.
Structure (SMILES),"activity change, negative = inhibition [1]","activity change, negative = inhibition [2]","activity change, negative = inhibition [3]","activity change, negative = inhibition [4]","activity change, negative = inhibition [5]"
COc1ccc(-c2cc3n(n2)CC(C)(C(=O)NC2CCCCCC2)N(Cc2ccccc2)C3=O)cc1 (stereo unspecified),2.04%,0%,7.71%,8.26%,2.62%
CN(C)C(=O)[C@H](O)[C@H](Cc1ccccc1)NC(=O)c1cc2cc(Cl)ccc2[nH]1,-8.61% and -1.25%,1.36% and 4.62%,-1.52% and 5.9%,-10.8% and -14.6%,-4.18% and -0.51%
CCCn1c(=O)c2cc(F)ccc2n2c(SCc3cccc(Cl)c3)nnc12,-16.5%,2.82%,4.32%,-14.8%,1.59%
CCCC1(C2CCN(C(=O)Cc3ccc(OC)cc3)CC2)NC(=O)N(CCc2cccs2)C1=O (stereo unspecified),-4.25%,-8.92%,-1.71%,-15.6%,7.99%
c1ccc(-c2n[nH]c(CC3CCNC3)n2)cc1 (stereo unspecified),-3.81%,-0.638%,-2.13%,-7.85%,-3.27%
CCc1ccccc1NC(=O)Cn1nc2n(C(C)C)c(=O)c3ccc(C(=O)NCC(C)C)cc3n2c1=O,0.092%,4.45%,1.42%,0.551%,0.664%
Cc1noc2c(-c3cccc(CO)c3)cc(-c3cccc(C(F)(F)F)c3)nc12,-3.91%,0.511%,0.878%,-9.37%,-11%
Cc1ccc(C(=O)Cn2nc3n(CCC(C)C)c(=O)c4ccccc4n3c2=O)c(C)c1,2.83%,1%,8.22%,-6.65%,5.83%
Cc1cc(=O)n(CC(=O)Nc2ccc3c(c2)OCCO3)c(N2CCc3ccccc3C2)n1,-9.29%,-9.84%,-3.02%,-15.8%,-13.3%
Cc1ccc(Cl)cc1NC(=O)CN(C)S(=O)(=O)c1ccc2[nH]c3c(c2c1)CCCC3,-2.95%,4.64%,5.9%,-2.21%,2.55%
COC(=O)[C@H](NC(=O)c1cc(-c2ccccc2)nc2ccccc12)c1ccccc1,-3.53%,3.33%,-0.342%,-7.61%,3.6%
C=C1C(=O)O[C@@H]2/C=C(\CO)CC/C=C(/C=O)C[C@@H](O)[C@@H]12,-7.65%,-8.54%,1.58%,-15.4%,0.173%
COC(=O)c1ncn2c1C(=O)N(CC(C)c1ccccc1)C(C)(C(=O)NC1CCCCCC1)C2 (stereo unspecified),7.7%,2.98%,-4.1%,8.96%,7.74%
Cc1ccc(CNC(=O)C2(C)Cn3nc(C(=O)NCCN4CCCCC4)cc3C(=O)N2C)cc1 (stereo unspecified),4.33%,0%,2.85%,0.736%,2.15%
COc1ccnc(CCc2nc3ncccc3[nH]2)c1,-2.24%,-1.04%,8.77%,-16%,2.15%
CN(C)C(N)=NCCC[C@H](N)C(=O)O,-3.07%,7.83%,-0.719%,-1.84%,8.02%
N#Cc1cc2nc(O)c(O)nc2cc1[N+](=O)[O-],-9.85%,4.28%,-0.555%,-6.3%,4.26%
C[C@@H](CN1CCC(Cc2ccccc2)CC1)[C@@H](O)c1ccc(O)cc1,4.45%,7.73%,3.4%,-6.83%,3.4%
CC(C)(O)CNc1ncc(-c2ccnc(Nc3ccnc(Cl)c3)n2)c(CC2CC2)n1,,-7.27%,,-47.8%,-24.4%
Cc1cc(C[C@@H]2COC[C@@H]2NC(=O)c2ccc(Oc3ccccc3)o2)on1,-5.52%,-9.04%,-2.19%,-8.6%,-3.75%
CCOc1ccc(CN2CCCC(CCC(=O)Nc3ccccc3F)C2)cc1CO (stereo unspecified),-5.1%,-4.89%,-6.08%,-8.76%,5.26%

Structure (SMILES),"activity change, negative = inhibition [1]","activity change, negative = inhibition [2]","activity change, negative = inhibition [3]","activity change, negative = inhibition [4]","activity change, negative = inhibition [5]"
CNc1nc(Nc2cn(C(C)(C)C#N)nc2C)ncc1C(F)(F)F,1.42%,1.1% and 7.57%,7.81%,-30.3% and -25.2%,4.83% and 5.86%
O=C(NCc1ccccc1)C1COC2(CCN(C(=O)c3cccs3)CC2)N1C(=O)c1ccco1 (stereo unspecified),-3.77%,-3.73%,-1.48%,-3.76%,1.48%
COC(=O)[C@@H]1C[C@H](NC(=O)c2c(Cl)cccc2Cl)CN1C,-5.11%,-7.83%,-3.57%,-9.37%,-5.82%
O=C(NC1CCCC1)c1ccc2c(=O)n(Cc3ccccc3)c3n[nH]c(=O)n3c2c1,-9.66%,-0.421%,-5.36%,-27.2%,-15.3%
CC(C)CNC(=O)c1ccc2c(=O)n(C(C)C)c3nn(CC(=O)NC4CCCCC4)c(=O)n3c2c1,7.53%,0%,11.3%,2.68%,5%
NC1CCC(N[C@@H]2C[C@H]2c2ccccc2)CC1 (stereo partly specified),5.9%,8.87%,11.7%,-1.79%,8.59%
CCc1ccc(N2C(=O)c3cc4occc4n3CC2(C)C(=O)NC2CCCC(C)C2C)cc1 (stereo unspecified),-4.61%,-1.44%,-2.47%,-5.39%,-6.11%
CCc1nc(C)sc1C(=O)N1C[C@@H](CN2CCCN(C)CC2)[C@@H](CO)C1,-1.36%,2.6%,-0.102%,-4%,-2.72%
COCCOCC(=O)N1CCC(N2C[C@H](OC)[C@@H]2c2cccnc2)CC1,-1.25%,-3.91%,-1.64%,-0.88%,-23.8%
Cc1noc(C)c1S(=O)(=O)N1CCCOCCNC(=O)[C@@H]2CCC[C@@H]21,-1.94%,-1.64%,0.713%,-4.12%,-8.46%
O[C@H]1CC[C@@H](Cc2cc(CN3CCCCC3)on2)O[C@@H]1CNCc1cccnc1,-0.89%,-0.669%,0.56%,-2.37%,0.407%
CCN(CC)Cc1cccc(/C=C/c2nc3ccc(F)cc3c(=O)n2-c2ccccc2Cl)n1,-17.4%,-0.869%,-12.5%,-36.6%,1.56%
Nc1nc(-c2ccc(Cl)c(Cl)c2)c(-c2ccncc2)s1,,3.65%,,-20.1%,-10.9%
Cn1c(=O)n(C)c2cc(S(=O)(=O)N3CCOCC3)c(Cl)cc21,0.025%,6.1%,3.9%,8.81%,-1.83%
N[C@@H](CS(=O)O)C(=O)O,1.34%,10.4%,7.08%,-3.55%,5.59%
COc1cccc(Cn2nc3n(Cc4ccc(C)cc4)c(=O)c4ccccc4n3c2=O)c1,2.12%,0%,6.08%,-0.188%,-0.418%
COc1cccc(CN2Cc3nc(-c4cnn(C)c4)ccc3OCC2=O)c1,-11.3%,-0.176%,-5.77%,-7.91%,-14.9%
CCCCN1C(=O)c2cc(C(=O)NC3CCCC3)nn2CC1(C)C(=O)NC1CCCC1 (stereo unspecified),7.68%,0%,9.51%,6.79%,5.82%
COC1OC(O)C2(CCC3(O2)C(C)CC2OC(=O)C4(C)CCCC3(C)C24)C1O (stereo unspecified),0%,7.48%,9.15%,-6.09%,2.45%
COCCCNC(=O)c1cc2n(n1)CC(C)(C(=O)NC1CCCCC1)N(C)C2=O (stereo unspecified),-0.239%,-0.046%,-0.364%,-2.24%,-2.62%
COc1ccc(C(=O)COC(=O)C(Cc2c[nH]c3ccccc23)NC(=O)c2ccc(Br)cc2)cc1 (stereo unspecified),0.321%,3.7%,3.97%,-2.24%,-3.23%

Structure (SMILES),"activity change, negative = inhibition [1]","activity change, negative = inhibition [2]","activity change, negative = inhibition [3]","activity change, negative = inhibition [4]","activity change, negative = inhibition [5]"
CCCn1c(=O)c2ccc(C(=O)NCC(C)C)cc2n2c(=O)n(Cc3cccc(Cl)c3)nc12,4.28%,0.805%,9.24%,-2.64%,6.1%
CCCNC(=O)N1Cc2c(sc3c2CCCC3)-n2cccc2C1c1cccc(C)c1 (stereo unspecified),-4.88%,0%,3.24%,-11.9%,-2.59%
CCCNS(=O)(=O)c1ccc2c(c1)n(C)c(=O)n2C,6.8%,0%,5.77%,0.007%,0.189%
C[C@H]1CC[C@@]2(OC1)O[C@H]1CC3C4CC[C@H]5C[C@@H](O)CC[C@]5(C)C4=CC(=O)[C@]3(C)[C@H]1[C@@H]2C (stereo partly specified),-1.7%,0.362%,5.11%,-9.11%,-9.34%
CN(C)C[C@@H]1CN(Cc2ccccn2)C[C@H]1NC(=O)c1n[nH]c2ccccc12,-7.66%,-1.36%,-3.43%,-2.35%,-3.95%
Cc1ccc(C)c(N2CCN(S(=O)(=O)c3ccc4[nH]c5c(c4c3)CCCC5)CC2)c1,3.44%,0%,2.34%,2.78%,2.64%
CCCN1C(=O)c2cc(-c3ccc(OC)cc3)nn2CC1(C)C(=O)NCc1ccccc1OC (stereo unspecified),2.65%,2.46%,5.97%,2.77%,-0.594%
COc1ccc(-c2n[nH]n3c2nc(=O)c2ccc(C(=O)NC(C)c4ccc(F)cc4)cc23)cc1 (stereo unspecified),-30.1%,2.12%,0.273%,-7.05%,-4.76%
COc1ccc(CN2C(=O)c3cc(-c4ccccc4)nn3CC2(C)C(=O)NCc2ccccc2)cc1 (stereo unspecified),1.07%,4.72%,2.15%,-5.01%,1.09%
COc1ccc2cc3n(c2c1)CC(C)(C(=O)NCC1CCCO1)N(CCc1ccccc1)C3=O (stereo unspecified),4.23%,0.183%,4.68%,8.91%,0.196%
CC(=O)O[C@@H]1CC[C@@]2(C)[C@H](CC[C@@H]3[C@@H]2C[C@H](OC(C)=O)[C@]2(C)[C@@H](C(C)=O)CC[C@@H]32)C1,-2.62%,7.02%,-0.094%,-20.7%,-11%
COC(=O)c1ncn2c1C(=O)N(Cc1cccc(OC)c1OC)C(C)(C(=O)NC1CCCCC1)C2 (stereo unspecified),3.68%,6.06%,5.63%,6%,1.88%
COc1cccc(CN2C(=O)c3cc4ccc(OC)cc4n3CC2(C)C(=O)NC2CCCC2)c1 (stereo unspecified),2.02%,2.24%,5.06%,-0.921%,0.193%
CCCn1c(=O)c2ccc(C(=O)NCC(C)C)cc2n2c(=O)n(Cc3cccc(C)c3)nc12,4.02%,3.41%,11.8%,-3.48%,3.85%
CCOc1ccccc1C(=O)NC1CCN(c2cc(C)cc(C)c2)C1=O (stereo unspecified),-4.21%,1.5%,0.575%,-1.78%,-1.03%
CCOc1ccc(CCN2C(=O)Cn3cccc3C2C(=O)NC2CCC(C)CC2)cc1 (stereo unspecified),-5.78%,2.41%,-2.25%,-1.1%,-5.26%
COCCCNC(=O)C1(C)Cn2nc(-c3ccccc3)cc2C(=O)N1Cc1cc(OC)ccc1OC (stereo unspecified),-0.332%,1.66%,5.14%,9.3%,1.95%
O=C(CCn1ccc2cc(S(=O)(=O)N3CCCCC3)ccc21)NCc1cccs1,3.38%,0.162%,3.92%,1.69%,1.4%
CCN(CC)Cc1cnc2c(C(=O)N3CCCN4CCC[C@H]4C3)cnn2c1,-9.81%,-13.9%,-16.7%,-19.1%,-14.7%
